# Experimental data reported in a collection of fitness landscapes (doi:10.1016/j.celrep.2020.107928).
# The full ranking holds about 81,000 sequences; the median of “one-hybrid fitness for binding parS DNA” is about -0.17, and the highest 2% start at about 0.51. The list shows a part of the results.
# B1: Caulobacter ParB omega fusion; a variant is named by its letters at X, in order, B8GW30 (parent)
# chain: MESVVVGEPGMSEGRRGLGRGLSALLGEVDAAPAQAPGEQLGGSREAPIEILQRNPDQPRRTFREEDLEDLSNSIREKGVLQPILVRPSPDTAGEYQIVAGERAWRAAQRAGLKTVPIMVRELDDLAVLEIGIIENVQRADLNVLEEALSYKVLMEKFERTQENIAQTIGKSXSHVANXMRLLXLPDEVQSYLVSGELTAXHARAIAAAADPVALAKQIIEGGLSVRETEALARKAPNLSAGKSKGGRPPRVKDTDTQALESDLSSVLGLDVSIDHRGSTGTLTITYATLEQLDDLCNRLTRGI
# Variants of: B1
# Assay: one-hybrid fitness for binding parS DNA (scaled: cognate 1, non-cognate 0); higher = stronger binding
# Conditions: with parS DNA site
# Summary of the method: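 In E. coli USO, a HIS3 reporter with its site placed 19 bp from the promoter was used to select Caulobacter ParB variants randomised at four specificity codons. Growth lasted 48 hours at 37°C on histidine-free M9 containing 0.1 mM IPTG and 5 mM 3-AT. Fitness was taken as the log change in variant-to-wild-type read ratio from Illumina sequencing of pre- and post-selection plasmids, rescaled between the non-cognate and cognate sites.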
row,Variant,one-hybrid fitness for binding parS DNA
1,RNTG,0.908
2,EFTN,≤ 0.2
3,QCVG,≤ 0.2
4,QREQ,≤ 0.2
5,RVER,≤ 0.2
6,HLYW,≤ 0.2
7,WKAR,≤ 0.2
8,ANAE,≤ 0.2
9,ALKI,≤ 0.2
10,QFQR,≤ 0.2
11,LTTM,≤ 0.2
12,QGRW,≤ 0.2
13,CTST,≤ 0.2
14,PTDY,≤ 0.2
15,CRRW,≤ 0.2
16,NSFI,≤ 0.2
17,SQDT,≤ 0.2
18,CLTV,≤ 0.2
19,QITN,≤ 0.2
20,SRLA,≤ 0.2
21,YCES,≤ 0.2
22,VRNP,≤ 0.2
23,TRNY,≤ 0.2
24,PFYG,≤ 0.2

row,Variant,one-hybrid fitness for binding parS DNA
1,QAEE,≤ 0.2
2,RLRA,0.727
3,SMAV,≤ 0.2
4,HRVT,≤ 0.2
5,RNFW,≤ 0.2
6,ILYL,≤ 0.2
7,INSY,≤ 0.2
8,RAWC,0.927
9,NKLT,≤ 0.2
10,ARCS,≤ 0.2
11,YPEC,≤ 0.2
12,SSLC,≤ 0.2
13,LMFM,≤ 0.2
14,HHTE,≤ 0.2
15,PNQV,≤ 0.2
16,RWWT,0.507
17,PFLS,≤ 0.2
18,KQDT,≤ 0.2
19,FRWT,≤ 0.2
20,SFKY,≤ 0.2
21,GLWW,≤ 0.2
22,EIAR,≤ 0.2
23,TADI,≤ 0.2
24,NWHT,≤ 0.2

row,Variant,one-hybrid fitness for binding parS DNA
1,NKSN,≤ 0.2
2,SAAS,≤ 0.2
3,CPPL,≤ 0.2
4,PFKG,≤ 0.2
5,SVQN,≤ 0.2
6,GMTV,≤ 0.2
7,TWCG,≤ 0.2
8,DPDF,≤ 0.2
9,LQYY,≤ 0.2
10,EATM,≤ 0.2
11,ELMT,≤ 0.2
12,IVDG,≤ 0.2
13,VGTR,≤ 0.2
14,NIPS,≤ 0.2
15,SQRF,≤ 0.2
16,MAMM,≤ 0.2
17,AVLD,≤ 0.2
18,PMFS,≤ 0.2
19,LPTN,≤ 0.2
20,LMVV,≤ 0.2
21,VNRY,≤ 0.2
22,VYQS,≤ 0.2
23,KTKI,≤ 0.2
24,GFNN,≤ 0.2

row,Variant,one-hybrid fitness for binding parS DNA
1,PHFM,≤ 0.2
2,QRQL,≤ 0.2
3,FRCV,≤ 0.2
4,MMKT,≤ 0.2
5,CASA,≤ 0.2
6,VWGR,≤ 0.2
7,HSMT,≤ 0.2
8,ERKM,≤ 0.2
9,GIMS,≤ 0.2
10,FNGT,≤ 0.2
11,TNQT,≤ 0.2
12,QDLC,≤ 0.2
13,YSGA,≤ 0.2
14,INPV,≤ 0.2
15,FHTT,≤ 0.2
16,CQVS,≤ 0.2
17,RNWV,≤ 0.2
18,GHLT,≤ 0.2
19,QDLN,≤ 0.2
20,FFRT,≤ 0.2
21,IRNA,≤ 0.2
22,GGEF,≤ 0.2
23,YKNL,≤ 0.2
24,KAWP,≤ 0.2

row,Variant,one-hybrid fitness for binding parS DNA
1,DQHT,≤ 0.2
2,PLGA,≤ 0.2
3,RGAK,≤ 0.2
4,ARGM,≤ 0.2
5,YCSL,≤ 0.2
6,PEPW,≤ 0.2
7,AKLM,≤ 0.2
8,HYMI,≤ 0.2
9,QQTS,≤ 0.2
10,QSNF,≤ 0.2
11,VVGL,≤ 0.2
12,QGKG,≤ 0.2
13,QRKE,≤ 0.2
14,SSTQ,≤ 0.2
15,YPEG,≤ 0.2
16,QQVQ,≤ 0.2
17,QPDA,≤ 0.2
18,GVGC,≤ 0.2
19,RMYS,1.01
20,VFRW,≤ 0.2
21,PLMW,≤ 0.2
22,RIHL,≤ 0.2
23,QYSN,≤ 0.2
24,NRFF,≤ 0.2

row,Variant,one-hybrid fitness for binding parS DNA
1,KMPC,≤ 0.2
2,QAWC,≤ 0.2
3,QGPS,≤ 0.2
4,MHTC,≤ 0.2
5,YQDY,≤ 0.2
6,CHRH,≤ 0.2
7,AKNI,≤ 0.2
8,QRTR,≤ 0.2
9,WIFG,≤ 0.2
10,RTCC,0.959
11,RMWL,≤ 0.2
12,HENT,≤ 0.2
13,QANA,≤ 0.2
14,IYPS,≤ 0.2
15,ESYI,≤ 0.2
16,QLLG,≤ 0.2
17,AVAV,≤ 0.2
18,TTVM,≤ 0.2
19,DEAS,≤ 0.2
20,QKCV,≤ 0.2
21,GFNF,≤ 0.2
22,PNMM,≤ 0.2
23,INLL,≤ 0.2
24,HYER,≤ 0.2

row,Variant,one-hybrid fitness for binding parS DNA
1,TVMQ,≤ 0.2
2,CSLN,≤ 0.2
3,RFID,≤ 0.2
4,SVYR,≤ 0.2
5,DEAY,≤ 0.2
6,PYVC,≤ 0.2
7,ICIR,≤ 0.2
8,IEES,≤ 0.2
9,YVVG,≤ 0.2
10,PNPW,≤ 0.2
11,QDWW,0.287
12,PLWA,≤ 0.2
13,FRTQ,≤ 0.2
14,ACYY,≤ 0.2
15,QKIR,≤ 0.2
16,SEHQ,0.354
17,RNSR,≤ 0.2
18,SSHG,≤ 0.2
19,DMNS,≤ 0.2
20,DRFV,≤ 0.2
21,RRHG,0.72
22,YMRC,≤ 0.2
23,HAAI,≤ 0.2
24,QVPS,≤ 0.2

row,Variant,one-hybrid fitness for binding parS DNA
1,LPRT,≤ 0.2
2,SMRW,≤ 0.2
3,QVEF,≤ 0.2
4,YRVS,≤ 0.2
5,KHQV,≤ 0.2
6,EAKH,≤ 0.2
7,LPIQ,≤ 0.2
8,LPAK,≤ 0.2
9,VEYR,≤ 0.2
10,DIDR,≤ 0.2
11,HQAD,≤ 0.2
12,YCEM,≤ 0.2
13,GKYG,≤ 0.2
14,CYLY,≤ 0.2
15,ADPV,≤ 0.2
16,KRRT,≤ 0.2
17,EDME,≤ 0.2
18,HKDD,≤ 0.2
19,EIIR,≤ 0.2
20,VTKH,≤ 0.2
21,IAPG,≤ 0.2
22,ESWG,≤ 0.2
23,YVFS,≤ 0.2
24,QMCR,≤ 0.2

row,Variant,one-hybrid fitness for binding parS DNA
1,RVCE,≤ 0.2
2,TLKR,≤ 0.2
3,HPSL,≤ 0.2
4,ALDS,≤ 0.2
5,QQMY,≤ 0.2
6,IERR,≤ 0.2
7,HWTR,≤ 0.2
8,SRVE,≤ 0.2
9,TEPT,≤ 0.2
10,TFYG,≤ 0.2
11,SSHH,≤ 0.2
12,REHN,≤ 0.2
13,RSCW,≤ 0.2
14,VVSR,≤ 0.2
15,VRRV,≤ 0.2
16,LKIS,≤ 0.2
17,GMIR,≤ 0.2
18,MQTT,≤ 0.2
19,DGTS,≤ 0.2
20,QCTW,≤ 0.2
21,RYYH,≤ 0.2
22,PFDS,≤ 0.2
23,CRIG,≤ 0.2
24,WLTV,≤ 0.2

row,Variant,one-hybrid fitness for binding parS DNA
1,AQFC,≤ 0.2
2,TSTY,≤ 0.2
3,GMAT,0.266
4,YAWW,≤ 0.2
5,TDRY,≤ 0.2
6,PNIE,≤ 0.2
7,HAHC,≤ 0.2
8,CLSF,≤ 0.2
9,ADMI,≤ 0.2
10,PKIW,≤ 0.2
11,QSVC,≤ 0.2
12,HINM,≤ 0.2
13,HPRK,≤ 0.2
14,RMWV,≤ 0.2
15,CGNC,≤ 0.2
16,SAGW,≤ 0.2
17,MPKG,≤ 0.2
18,SARC,≤ 0.2
19,YVGI,≤ 0.2
20,RKDK,≤ 0.2
21,PLRP,≤ 0.2
22,EAGH,≤ 0.2
23,LCKH,≤ 0.2
24,RKCL,≤ 0.2

row,Variant,one-hybrid fitness for binding parS DNA
1,SRCD,≤ 0.2
2,KRIC,≤ 0.2
3,TRTV,≤ 0.2
4,WEPL,≤ 0.2
5,ATHN,≤ 0.2
6,EKHF,≤ 0.2
7,QQEV,≤ 0.2
8,HSEP,≤ 0.2
9,IVIC,≤ 0.2
10,PNCR,≤ 0.2
11,KNDK,≤ 0.2
12,EPLC,≤ 0.2
13,SKVI,≤ 0.2
14,HKSS,≤ 0.2
15,MRLM,≤ 0.2
16,PFHV,≤ 0.2
17,QYSH,≤ 0.2
18,THGT,≤ 0.2
19,WYES,≤ 0.2
20,YKAT,≤ 0.2
21,VQCS,≤ 0.2
22,QQLY,≤ 0.2
23,CRRL,≤ 0.2
24,ALLR,≤ 0.2

row,Variant,one-hybrid fitness for binding parS DNA
1,NEQM,≤ 0.2
2,RKIH,≤ 0.2
3,ERPY,≤ 0.2
4,STKG,≤ 0.2
5,QLIV,≤ 0.2
6,ASGP,≤ 0.2
7,TRLK,≤ 0.2
8,QYSE,≤ 0.2
9,IRRE,≤ 0.2
10,QASA,≤ 0.2
11,LSMR,≤ 0.2
12,NLVR,≤ 0.2
13,VRHY,≤ 0.2
14,SSHL,≤ 0.2
15,QVDV,≤ 0.2
16,ISSV,≤ 0.2
17,RCKN,0.463
18,AWDC,≤ 0.2
19,AIAF,≤ 0.2
20,QEIV,≤ 0.2
21,RKEY,0.401
22,SSWI,≤ 0.2
23,AIRV,≤ 0.2
24,YISF,≤ 0.2

row,Variant,one-hybrid fitness for binding parS DNA
1,ARWV,≤ 0.2
2,DSVR,≤ 0.2
3,HSAQ,≤ 0.2
4,NYSA,≤ 0.2
5,DYGV,≤ 0.2
6,KSMD,≤ 0.2
7,RCES,1.02
8,YEKM,≤ 0.2
9,FSPR,≤ 0.2
10,TMPI,≤ 0.2
11,MKTL,≤ 0.2
12,ASHV,≤ 0.2
13,LMYF,≤ 0.2
14,QVQF,≤ 0.2
15,RVGQ,≤ 0.2
16,RDFC,≤ 0.2
17,LRSP,≤ 0.2
18,WTMS,≤ 0.2
